Assay results from the supplement of paper PMC3334620.
The full ranking holds about 33,000 sequences; the median of “E-score (-0.5 to 0.5)” is about -0.016, and the highest 2% start at about 0.32. The list shows a part of the results.

Target: T1, Stp1 (UniProt B3LFK1)
T1 sequence: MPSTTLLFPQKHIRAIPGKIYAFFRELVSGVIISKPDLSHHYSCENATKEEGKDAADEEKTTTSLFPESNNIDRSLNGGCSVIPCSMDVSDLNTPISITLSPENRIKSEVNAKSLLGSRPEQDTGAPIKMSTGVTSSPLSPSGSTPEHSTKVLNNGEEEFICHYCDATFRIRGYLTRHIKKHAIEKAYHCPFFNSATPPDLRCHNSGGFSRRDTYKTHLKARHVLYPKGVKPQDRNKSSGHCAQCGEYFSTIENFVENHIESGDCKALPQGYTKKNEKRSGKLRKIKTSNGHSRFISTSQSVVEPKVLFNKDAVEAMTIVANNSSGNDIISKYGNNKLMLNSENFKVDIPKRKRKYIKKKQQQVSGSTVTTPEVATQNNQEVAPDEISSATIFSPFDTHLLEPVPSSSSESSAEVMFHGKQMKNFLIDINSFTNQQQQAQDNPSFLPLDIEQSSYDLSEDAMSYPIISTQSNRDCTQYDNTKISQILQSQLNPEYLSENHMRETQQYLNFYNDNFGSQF
Experiment: PBM E-score (8-mer binding enrichment) (E-score (-0.5 to 0.5)); higher = stronger / more preferred TF binding; most listed sequences are background and not binding sites
Details: protein concentration: 200 nM; construct: GST-full length
Procedure, shortened: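 For each ungapped eight-base word taken together with its reverse complement, the Universal PBM Analysis Suite assigned an E-score. Binding data came from GST-tagged yeast transcription factors, applied at about 100-200 nM, on universal all-10-mer Agilent arrays made double-stranded by primer extension. Fluorescent anti-GST marked bound protein, and scans were normalised with masliner.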

Sequence	PBM E-score
GTAGGGAC	0.0592
ACCAAGAC	-0.0197
ATCCGAAA	-0.00635
GGCAGGAA	0.0319
GTACGGTA	0.147
AGCGGACG	0.12
AGTCTCCC	-0.272
CTCTTCGA	-0.0286
CCGCGAGG	0.294
GGGCGAGA	-0.132
TCAATTCA	-0.0185
GCCTCCTA	0.00877
CCCTTCCC	-0.243
CGCTGAAA	0.0896
AGCTATAT	0.0574
AAGTGCCG	0.453
CTAAGACC	-0.176
CTCCATAA	-0.164
GCTGGACA	-0.101
TGGGACCA	-0.282
AGAGCCAA	0.0298
AAAAAACC	-0.0654
ACTAAATG	-0.0582
GAGTAAAA	0.114
AAGCTGGG	-0.164

Sequence	PBM E-score
AGTGCCAC	0.242
AAAACCGG	0.0827
AGATGTCC	-0.121
CAGGAAGC	0.0679
GCGTGCAA	-0.159
GCCCACGA	-0.117
ACTATGTA	-0.00696
ATGACTTG	-0.172
TCCTCCAA	-0.198
CTGAACTC	-0.24
GAGTGTGC	0.0735
ATGACTGC	-0.146
ACTCCAAT	-0.137
GCGTGAAA	0.194
GTGCGATA	-0.0177
ATCTTCGA	-0.00056
CTGGCAAA	0.0557
AATACCCG	0.029
TACATAAA	0.0395
GAGCGCCC	0.0345
CACAATTC	0.169
CCTAGGGA	-0.131
GAGAATGC	0.156
ACAACGCC	0.311
TCAATAGA	-0.029

Sequence	PBM E-score
CCCCAAGC	0.14
CGGCCGAG	0.0456
AACCGAGC	0.14
ATGGCCTC	-0.146
AGCGAGTC	-0.182
AGTGCAAG	0.184
CTGAGCAG	-0.0205
CTTACAAC	0.215
CGTTTACC	0.139
GATCCAAC	-0.213
CCCTATAG	-0.0685
GTAGTAAC	-0.0907
AACGCCGC	0.47
AATTGCGG	0.139
GTTCGAGA	-0.035
ATAAAGCC	0.173
ACTGGGGG	-0.416
CACAAGGA	0.0226
AGAATATG	0.0553
GCCGTCAC	0.219
CTATTCTA	0.0643
AACTTCCT	0.0443
CAGTAGAA	-0.0821
CGGGTGAC	-0.069
GCGACGCC	0.296

Sequence	PBM E-score
ATCAGGGC	-0.224
GGAGGAAA	-0.154
GTGCTGCA	0.0505
GCGTGCGA	-0.0235
GCTGACGA	-0.00687
CCCGGAGA	-0.199
CGTGAAAA	0.204
CTTCATCA	-0.0498
CGATAGGC	0.135
CAGAACTC	-0.0507
AATGATGG	-0.0217
AATTCCCG	-0.0443
ATGGTGAC	-0.138
AGGGACTA	-0.205
AGGTATCC	-4e-05
ACATACAC	0.162
CAAGAATG	-0.0254
GATAACAC	0.0738
CGGGACAC	-0.137
CAATGTTA	0.00872
ACAGCACT	0.0191
CGAAGCAC	-0.0875
TATACATA	0.0439
AAAACTGG	-0.176
ACCTCGCC	-0.158

Sequence	PBM E-score
GTAGAACA	-0.156
GGCTGTTA	0.196
GGCGACCA	0.104
CACACAAG	0.0408
AACTAATT	0.163
CGTCGTTA	-0.05
GCTTTCTA	0.263
CCAGTGTA	0.0284
AGGATATA	0.016
GCTTTAGA	0.00189
ACAGCATG	0.00613
AATAGCCT	-0.0101
ACTGCATG	0.0776
TCAGTTAA	0.0358
GTCGGACA	-0.0595
TGGAGACA	-0.0591
TTCAAAAA	0.195
TAAGCTTA	0.126
CCATCTGA	0.0654
CAAGCAAA	-0.0183
CACACATC	-0.0672
ACTGGTAG	0.0139
CAATTTAA	0.169
CTGGGCAA	0.00874
CACTTATC	0.00597

Sequence	PBM E-score
CCACGTCC	-0.126
ACGACTTC	-0.0717
GGCGTACA	0.068
ATATTCAC	-0.00705
ACCTGTTG	-0.0536
GAGGCACC	0.239
CGGTTCTC	-0.0589
CCGCTACG	0.0752
AAGACGCG	0.0307
ACACAATG	0.0282
ACATCCGA	-0.0192
TAATGACA	-0.0122
CAAGGGGC	0.0683
ACGGACAA	0.142
AGCAAACT	0.1
AGTAACTG	-0.0431
CGTGTTGC	0.164
CGATCGCG	0.123
CAGCCTCA	-0.134
ACTTTTTC	-0.0491
AAAATAGC	-0.0678
GAGCTTCC	-0.0682
AACACGAC	-0.0456
GGTGTTAC	-0.147
CCACCTCA	-0.19

Sequence	PBM E-score
ACTTAGCA	-0.0458
AATCTCAA	0.0026
GCAGCGGA	-0.0607
AAGTGACA	0.141
GCACTCGC	0.165
GCTCCTCC	-0.216
CACCGCAA	0.0442
AGACAAAA	0.0567
ATGCTGGA	-0.104
TACCCATA	-0.16
GCTAGCAC	-0.181
CACAGGAA	0.0982
GCATTGAC	0.00015
ACAATCGG	0.0293
GGGTGTGA	-0.259
CCTCCGCA	-0.147
CATCCATA	-0.0113
AGGAGTAT	-0.216
CCGATAGC	-0.327
AGTAACGG	0.106
GGGATCAC	-0.188
CGGCCCTC	0.0219
CGCAGACC	-0.0697
ATCTTCTG	0.162
CCCGACGC	-0.122

Sequence	PBM E-score
AGATAGCC	-0.156
AACCCACA	0.0996
CCCGATCA	-0.255
CAGAATTC	-0.0463
CACAGTGG	-0.0956
GGACCGAC	-0.0686
AAGAAGAC	-0.0244
GGGATAGA	-0.148
GATGTGCC	0.185
GACCTGGC	-0.295
AACATGGA	0.0746
GATATTCA	-0.115
CTGCGGAA	-0.0491
AGCGCGAA	0.0676
AATTAGCT	-0.033
GCCCCCCC	-0.243
GACCAGCA	-0.139
AACACCGT	0.116
CTCTCACC	0.0376
CGACATCG	-0.174
GTTATCTA	-0.0892
ACAGCCCT	-0.145
TATTGACA	-0.0359
CCAGGTCC	-0.323
ACGGATAT	0.26

Sequence	PBM E-score
TCCTTGAA	-0.0462
AGGGTTCG	-0.173
ACGCATGC	0.181
CGATAGCG	-0.0295
ACTAAATA	0.199
CCAGCGGA	-0.282
AAGGCTTG	-0.0542
CAACGTAC	0.1
CCCTCTTA	-0.00958
GGATGTTA	0.0805
CTTGCAGA	-0.134
CTCGGAAA	-0.0195
CCAAATAC	-0.0319
ACAACACT	0.0433
ACGCCGTA	0.471
GCATAGGC	-0.113
CACATCCA	0.176
AACATAGC	-0.044
GTCGCGGA	-0.0678
